Assay results from patent US20210070829A1 (ZHEJIANG DOER BIOLOGICS, published 2021).

B1: C462 L11F8L13M1 (Fc fusion)
chain: HSQGTFTSDYSKYLDEEAAQDFVQWLMNGGPSSGAPPPSGGSGGGGSGGGGSGGA[human IgG4 Fc with S228P N297A (EU numbers) omitted here]GGGGSGGGGSGGGGSAHPIPDSSPLLQFGGQVRQRYLYTDDAQQTEAHLEIREDGTVGGAADQSPESLLQLKALKPGVIQILGVKTSRFLCQRPDGALYGSLHFDPEACSFRERLLEDGYNVYQSEAHGLPLHLPGNKSPHRDPAPRGPARFLPLPGLPPALPEPPGILAPQPPDVGSSDPLSMVGGSQGRSPSYES
B2: C462 L13F4L10M2 (Fc fusion)
chain: HSQGTFTSDYSKYLDEEAAQDFVQWLMNGGPSSGAPPPSGGGGSGGGGSGGGGSA[human IgG1 Fc with changes omitted here]GGGAGGGGAGGGGAHPIPDSSPLLQFGGQVRQRYLYTDDAQQTEAHLEIREDGTVGGAADQSPESLLQLKALKPGVIQILGVKTSRFLCQRPDGALYGSLHFDPEACSFRERLLEDGYNVYQSEAHGLPLHCPGNKSPHRDPAPRGPCRFLPLPGLPPALPEPPGILAPQPPDVGSSDPLSMVGGSQGRSPSYES
B3: C462 L13F8L10M2 (Fc fusion)
chain: HSQGTFTSDYSKYLDEEAAQDFVQWLMNGGPSSGAPPPSGGGGSGGGGSGGGGSA[human IgG4 Fc with S228P N297A (EU numbers) omitted here]GGGGAGGGGAGGGGAHPIPDSSPLLQFGGQVRQRYLYTDDAQQTEAHLEIREDGTVGGAADQSPESLLQLKALKPGVIQILGVKTSRFLCQRPDGALYGSLHFDPEACSFRERLLEDGYNVYQSEAHGLPLHCPGNKSPHRDPAPRGPCRFLPLPGLPPALPEPPGILAPQPPDVGSSDPLSMVGGSQGRSPSYES
B4: C228 L13F4L13M12 (Fc fusion)
chain: HSQGTFTSDYSKYLDEERAQDFVQWLMNTGPSSGAPPPSGGGGSGGGGSGGGGSA[human IgG1 Fc with changes omitted here]GGGSGGGGSGGGGSAHPIPDSSPLLQFGGQVRQRYLYTDDAQQTEAHLEIREDGTVGGAADQSPESLLQLKALKPGVIQILGVKTSRFLCQRPDGALYGSLHFDPEACSFRERLLEDGYNVYQSEAHGLPLHCPGNKSPHRDPAPRGPCRFLPLPGLPPALPEPPGILAPQPPDVGSSDPLAMVGGSQGRSPSYAS
B5: C187 L9F4L12M7 (Fc fusion)
chain: HSQGTFTSDYSKYLDSQRAQDFVQWLMNTGPSSGAPPPSGGGGSGGGGSGGGGS[human IgG1 Fc with changes omitted here]GGGAGGGGAGGGGAAHPIPDSSPLLQFGGQVRQEYLYTDDAQQTEAHLEIREDGTVGGAADQSPESLLQLKALKPGVIQILGVKTSRFLCQRPDGALYGSLHFDPEACSFRERLLEDGYNVYQSEAHGLPLHLPGNKSPHRDPAPRGPARFLPLPGLPPALPEPPGILAPQPPDVGSSDPLSMVGGSQGRSPSYES
B6: C364 L10F4L12M8 (Fc fusion)
chain: HSQGTFTSDYSKYLDGQAAQDFVQWLMNGGPSSGAPPPSGGGGAGGGGAGGGGA[human IgG1 Fc with changes omitted here]GGGAGGGGAGGGGAAHPIPDSSPLLQFGGQVRQRYLYTDDAQQTEAHLEIREDGTVGGAADQSPESLLQLKALKPGVIQILGVKTSRFLCQRPDGALYGSLHFDPEACSFRERLLEDGYNVYQSEAHGLPLHLPGNKSPHRDPAPRGPARFLPLPGLPPALPEPPGILAPQPPDVGSSDPLSMVGGSQGRSPSAAS
B7: C209 L13F8L13M9 (Fc fusion)
chain: HSQGTFTSDYSKYLDSEAAQDFVQWLMNGGPSSGAPPPSGGGGSGGGGSGGGGSA[human IgG4 Fc with S228P N297A (EU numbers) omitted here]GGGGSGGGGSGGGGSAHPIPDSSPLLQFGGQVRQRYLYTDDAQQTEAHLEIREDGTVGGAADQSPESLLQLKALKPGVIQILGVKTSRFLCQRPDGALYGSLHFDPEACSFRERLLEDGYNVYQSEAHGLPLHCPGNKSPHRDPAPRGPCRFLPLPGLPPALPEPPGILAPQPPDVGSSDPLAMVGGSQGRSPSYAS
B8: C289 L12F4L8M10 (Fc fusion)
chain: HSQGTFTSDYSKYLDGEAAQDFVQWLMNGGPSSGAPPPSGGGGAGGGGAGGGGAA[human IgG1 Fc with changes omitted here]GSGGGAGGGGSDSSPLLQFGGQVRQRYLYTDDAQQTEAHLEIREDGTVGGAADQSPESLLQLKALKPGVIQILGVKTSRFLCQRPDGALYGSLHFDPEACSFRERLLEDGYNVYQSEAHGLPLHCPGNKSPHRDPAPRGPCRFLPLPGLPPALPEPPGILAPQPPDVGSSDPLAMVGGSQGRSPSYAS
B9: C611 L11F4L11M11 (Fc fusion)
chain: HSQGTFTSDYSKYLDERAAQDFVQWLLDGPSSGAPPPSGGSGGGGSGGGGSGGA[human IgG1 Fc with changes omitted here]GSGGGGSGGGGSGGAHPIPDSSPLLQFGGQVRQRYLYTDDAQQTEAHLEIREDGTVGGAADQSPESLLQLKALKPGVIQILGVKTSRFLCQRPDGALYGSLHFDPEACSFRERLLEDGYNVYQSEAHGLPLHLPGNKSPHRDPAPRGPARFLPLPGLPPALPEPPGILAPQPPDVGSSDPLAMVGGSQGRSPSYES
B10: C618 L13F7L13M1 (Fc fusion)
chain: HSQGTFTSDLSKQMDSRAAQDFIEWLKNGGPSSGAPPPSGGGGSGGGGSGGGGSA[human IgG4 Fc with S228P N297A (EU numbers) omitted here]GGGGSGGGGSGGGGSAHPIPDSSPLLQFGGQVRQRYLYTDDAQQTEAHLEIREDGTVGGAADQSPESLLQLKALKPGVIQILGVKTSRFLCQRPDGALYGSLHFDPEACSFRERLLEDGYNVYQSEAHGLPLHLPGNKSPHRDPAPRGPARFLPLPGLPPALPEPPGILAPQPPDVGSSDPLSMVGGSQGRSPSYES
B11: C618 L12F4L12M2 (Fc fusion)
chain: HSQGTFTSDLSKQMDSRAAQDFIEWLKNGGPSSGAPPPSGGGGAGGGGAGGGGAA[human IgG1 Fc with changes omitted here]GGGAGGGGAGGGGAAHPIPDSSPLLQFGGQVRQRYLYTDDAQQTEAHLEIREDGTVGGAADQSPESLLQLKALKPGVIQILGVKTSRFLCQRPDGALYGSLHFDPEACSFRERLLEDGYNVYQSEAHGLPLHCPGNKSPHRDPAPRGPCRFLPLPGLPPALPEPPGILAPQPPDVGSSDPLSMVGGSQGRSPSYES
B12: C623 L9F3L10M1 (Fc fusion)
chain: HSQGTFTSDLSKQMDSREAQDFIEWLKNTGPSSGAPPPSGGGGSGGGGSGGGGS[human IgG1 Fc with changes omitted here]GGGGAGGGGAGGGGAHPIPDSSPLLQFGGQVRQRYLYTDDAQQTEAHLEIREDGTVGGAADQSPESLLQLKALKPGVIQILGVKTSRFLCQRPDGALYGSLHFDPEACSFRERLLEDGYNVYQSEAHGLPLHLPGNKSPHRDPAPRGPARFLPLPGLPPALPEPPGILAPQPPDVGSSDPLSMVGGSQGRSPSYES
B13: C623 L9F8L9M2 (Fc fusion)
chain: HSQGTFTSDLSKQMDSREAQDFIEWLKNTGPSSGAPPPSGGGGSGGGGSGGGGS[human IgG4 Fc with S228P N297A (EU numbers) omitted here]GGGGSGGGGSGGGGSHPIPDSSPLLQFGGQVRQRYLYTDDAQQTEAHLEIREDGTVGGAADQSPESLLQLKALKPGVIQILGVKTSRFLCQRPDGALYGSLHFDPEACSFRERLLEDGYNVYQSEAHGLPLHCPGNKSPHRDPAPRGPCRFLPLPGLPPALPEPPGILAPQPPDVGSSDPLSMVGGSQGRSPSYES
B14: C654 L13F9L6M3 (Fc fusion)
chain: HSQGTFTSDYSKQLDSQRAQDFVQWLMNGGPSSGAPPPSGGGGSGGGGSGGGGSA[human IgG4 Fc with S228P F234A L235A (EU numbers) omitted here]GGGGAGGGGADSSPLLQFGGQVRQRYLYTDDAQQTEAHLEIREDGTVGGAADQSPESLLQLKALKPGVIQILGVKTSRFLCQRPDGALYGSLHFDPEACSFRELLLEDGYNVYQSEAHGLPLHCPGNKSPHRDPAPRGPCRFLPLPGLPPALPEPPGILAPQPPDVGSSDPLAMVGPSQGRSPSYAS
B15: C673 L8F3L8M8 (Fc fusion)
chain: HSQGTFTSDYSKYLDEEAAQDFIEWLKNTGPSSGAPPPSGGSGGGAGGGGS[human IgG1 Fc with changes omitted here]GGSGGGAGGGGSHPIPDSSPLLQFGGQVRQRYLYTDDAQQTEAHLEIREDGTVGGAADQSPESLLQLKALKPGVIQILGVKTSRFLCQRPDGALYGSLHFDPEACSFRERLLEDGYNVYQSEAHGLPLHLPGNKSPHRDPAPRGPARFLPLPGLPPALPEPPGILAPQPPDVGSSDPLSMVGGSQGRSPSAAS

Assays:
Test in all cases: cell-based or functional assay
human GLP-1 receptor = human GLP-1 receptor (human, UniProt P43220)
Glucagon receptor = target: Glucagon receptor
[1] = target: FGFR/β-Klotho receptor complex

Row | Binder | GLP-1R agonist activity EC50 (luciferase reporter) (human GLP-1 receptor) [nM] | GCGR agonist activity EC50 (luciferase reporter) (Glucagon receptor) [nM] | FGF21 activity EC50 (luciferase reporter) [1] [nM]
1 | B1 | 1.41 | 1.17 | 0.78
2 | B2 | 1.32 | 1.27 | 0.88
3 | B3 | 1.21 | 1.63 | 0.58
4 | B4 | 1.27 | 1.38 | 1.37
5 | B5 | 1.88 | 1.69 | 0.79
6 | B6 | 1.87 | 1.27 | 0.73
7 | B7 | 1.74 | 1.45 | 1.13
8 | B8 | 1.77 | 1.38 | 1.36
9 | B9 | 1.1 | 1.39 | 1.73
10 | B10 | 1.47 | 1.25 | 0.68
11 | B11 | 1.53 | 1.32 | 0.78
12 | B12 | 1.88 | 1.56 | 0.74
13 | B13 | 1.93 | 1.45 | 0.88
14 | B14 | 1.53 | 1.25 | 0.71
15 | B15 | 1.92 | 1.44 | 1.01
